According to ChEMBL document CHEMBL4888484, “Replenishing the malaria drug discovery pipeline: Screening and hit evaluation of the MMV Hit Generation Library 1 (HGL1) against asexual blood stage Plasmodium falciparum ,using a nano luciferase reporter read-out” (2022):
About 540 (0.36%) of roughly 150,000 compounds showed an effect of 50% or more. This is one part of the list.

These molecules were tested on Plasmodium falciparum (assay: Primary screen in NF54 nanoGlo assay, in single point, at 2uM, 72h; a lower Z score goes with more inhibition). Details: timepoint 72 hour.
Type: functional, Erythrocyte

| SMILES | % Inhibition [%] | Z score |
| --- | --- | --- |
| Cn1cc(C(NC(=O)CCn2nnc3ccccc32)[C@H]2C[C@@H](O)C2)cn1 (stereo partly drawn) | -13 | 2.55 |
| COCc1cccc(CC(=O)N2CCC[C@@](O)(c3c[nH]nn3)C2)c1 | 4 | -0.52 |
| CCCC(=O)OC1CC(n2cc(C)c(=O)[nH]c2=O)OC1CO (stereo not drawn) | 8 | -1.2 |
| CCn1cnnc1C1CCN(CC(=O)Nc2cc(C3CCCC3)nn2-c2ccccc2)CC1 | -11 | 1.15 |
| Cc1c(CN(C)C(=O)CN2C(=O)NC(=O)C2(C)C)cnn1C | -15 | 1.54 |
| CS(=O)(=O)c1ccnc(NC(=O)N(Cc2ccoc2)C2CC2)c1 | -2 | 0.47 |
| CC(=O)NCC(=O)N(Cc1ccco1)C1(C(=O)NC2CCCCC2)CCCCC1 | 37 | -4.75 |
| c1ccc(Cc2nc(Cn3nnc(-c4ccccc4)n3)no2)cc1 | -3 | 0.52 |
| Cc1csc(C(=O)NCc2nc(C)no2)c1 | -13 | 1.91 |
| CN1C(=O)C[C@H](NC(=O)c2c(Cl)cccc2OCC2CC2)C1=O | 2 | -0.31 |
| CCS(=O)(=O)Nc1cc(C2CCCC2)nn1C | -14 | 1.38 |
| CCn1cc(C(=O)N2CC[C@H](N(CCN3CCCCC3)C(=O)N(C)C)C2)c(C)n1 | 0 | 0.03 |
| CCCc1ccc(CN2CCC3(CCC(=O)N(CCc4c[nH]cn4)C3)CC2)o1 | 0 | 0.02 |
| Cc1ccc(OCc2cccc(C(=O)N3CCN4CCC[C@H]4C3)c2)cn1 | -13 | 1.62 |
| COc1ccc(C2Nc3cccc4cccc(c34)N2)cc1OCc1ccccc1 | -5 | 0.81 |
| CCCC[C@H](C)N1CCC(Oc2c(F)cccc2F)(C(=O)O)CC1 | -11 | 1.56 |
| CCn1ccnc1CN1CC[C@@]2(CCCN(C(=O)c3ccccc3C)C2)C1 | 1 | -0.14 |
| O=C(NCC1(N2CCOCC2)CCCCC1)N1CCC1 | -6 | 0.63 |
| CC(C)[C@H](NC(=O)c1ccc(Cl)cc1-n1cnnn1)c1nc2ccccc2n1C(C)C | 7 | -0.83 |
| COc1ccccc1Nc1nc2sc(C(=O)Nc3ncccc3C)cc2s1 | -5 | 0.9 |
| Cc1[nH]c2ccc(-c3noc([C@@H]4CN(C)CCO4)n3)cc2c1C | 0 | 0.07 |
| COc1ccc(N2CCn3c(nc4ccccc43)C2)cc1NC(=O)C1CCCCC1 | 26 | -3.48 |
| CCC(=O)Nc1ccc(C)c(NC(=O)N2CCC[C@@H]2CN(C)c2ccccc2)c1 | -3 | 0.27 |
| O=C(c1ccncc1Cl)N1CCC2(CC1)Cc1cn(nn1)CCCOc1ccc(cc1)CCNC2=O | 12 | -1.6 |
| CC(C)CCOc1ccc(CCNC(=O)c2cncnc2)cc1 | -20 | 2.18 |
| O=C(Nc1c(-c2cccc(F)c2)n[nH]c1C1CC1)c1ccccc1F | 19 | -2.31 |
| CCC(=O)N(C)c1nc2ccccc2n(CC(=O)Nc2ccccc2Br)c1=O | -6 | 0.92 |

| SMILES | % Inhibition [%] | Z score |
| --- | --- | --- |
| O=S(=O)(C1CCCCC1)N1CCC(COc2cc(C3CC3)ncn2)CC1 | -22 | 2.54 |
| COCc1nc([C@H]2CCN(S(=O)(=O)Cc3ccccc3F)C2)no1 | -6 | 1.21 |
| Cc1cccc(CN2CCCn3nc(C(=O)NCCCN4CCCCC4)cc3C2=O)c1 | -6 | 1.11 |
| O=C1CCC(=O)N1Cc1ccccc1NC1CC(c2ccccc2)C1 (stereo not drawn) | -6 | 0.53 |
| Cc1ncsc1C(=O)N1CC(c2ccccc2)C(c2ncon2)C1 (stereo not drawn) | -4 | 0.8 |
| Cc1nnc([C@H](C)N2CCC3(CC2)OCCc2ccsc23)o1 | 0 | 0.02 |
| Cc1cccc(NC(=O)N2CCCC[C@@H]2CO)c1 | 0 | -0.01 |
| CN1CCCC[C@@H](c2nc(-c3cn[nH]c3)no2)C1=O | -3 | 0.37 |
| CN(C)Cc1csc(CNC(=O)Nc2ccn(C)c(=O)c2)n1 | -4 | 0.51 |
| O=C([C@H]1CCS(=O)(=O)C1)N1CCC(Cc2ccccc2)CC1 | -14 | 1.87 |
| CC(=O)c1c(F)cc(F)cc1OCc1nccn1CC(F)(F)F | 22 | -2.5 |
| C[C@H]1CCc2c(cnc3c(C(=O)NCc4cccc(F)c4)cnn23)C1 | -3 | 0.43 |
| O=C(NCC1CCOCC1)c1ccc(-c2cc3ccccc3[nH]c2=O)cc1 | -21 | 2.34 |
| CCn1c(C(O)(c2ccccc2)c2nc3ccccc3n2CC)nc2ccccc21 | 9 | -1.02 |
| CC(NC(=O)C1CCN(c2ccc(Br)cc2F)C1=O)c1ccccc1 (stereo not drawn) | -9 | 0.83 |
| Cc1n[nH]c([C@@H]2CN(Cc3cc(F)ccc3Cl)CCO2)n1 | -10 | 1.26 |
| CNC(=O)[C@H]1CN(C(=O)Cc2cccc(C)c2)C[C@@H]1NC(C)=O | 4 | -0.49 |
| CCc1cc(C2CC2)nc(NS(=O)(=O)c2cncc(F)c2)n1 | -10 | 1.87 |
| C=CCn1c(=O)sc2cc(NC(=O)C(C)(C)C)ccc21 | 4 | -0.5 |
| C[C@H](NCc1ncnn1CC(F)F)c1cccc(C2CC2)c1 | -9 | 1.77 |
| COC(CNS(=O)(=O)c1ccc(NC(C)=O)cc1)OC | 6 | -0.83 |
| Cc1ccc(NC(=O)CCNc2cnc3cnccn23)cc1Cl | -13 | 1.86 |
| O[C@H](COc1cccc2[nH]ccc12)Cn1cnc2cc(F)c(F)cc21 | 9 | -1.09 |
| Cc1ccc(CN=C(N(C)C)N(C)C)s1 | 3 | -0.36 |
| CN(Cc1nccn1C)C(=O)C(=O)Nc1cc(F)ccc1F | 1 | -0.07 |
| Cc1c(C2=CCN(S(=O)(=O)c3ccc(CC(C)C)cc3)CC2)c2ccccc2n1Cc1cccc(F)c1 | -8 | 1.03 |
| C[C@@H](C1CC1)N(C)C(=O)c1cccn(Cc2ccc(F)cc2F)c1=O | 5 | -0.92 |
